This is one part of the list.

This assay has as its target T1, OsWOX13 (Oryza sativa, UniProt Q5QMM3 1-267).
T1 sequence: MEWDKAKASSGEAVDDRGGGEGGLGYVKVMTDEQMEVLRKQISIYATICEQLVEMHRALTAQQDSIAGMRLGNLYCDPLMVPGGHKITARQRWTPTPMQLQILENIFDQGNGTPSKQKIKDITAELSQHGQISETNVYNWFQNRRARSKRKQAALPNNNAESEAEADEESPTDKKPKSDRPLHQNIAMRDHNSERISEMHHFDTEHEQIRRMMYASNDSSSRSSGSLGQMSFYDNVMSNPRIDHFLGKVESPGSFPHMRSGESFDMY
Description: protein-binding microarray (RPBM); PBS, 2% BSA, 51.3 ng/ul salmon testes DNA, 50 uM zinc acetate, 200 nM TF, 25 C, 1 h; high values mean tight binding. The settings on record: protein: recombinant; tags: N-terminal polyhistidine and DsRed monomer fusion (pET32a); label: CyDye5-dUTP incorporated in the synthesized complementary strand; 3' TTTTT single-stranded linker to array surface; dsDNA, one strand shown. In a few lines: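 In PBS with 2% BSA, salmon testes DNA and 50 µM zinc acetate, 200 nM protein was incubated on a custom Agilent array at 25 °C for 1 h and then washed off. The array had been made double-stranded by primer extension with Cy5-dUTP and blocked with 2% BSA. The proteins were transcription factors fused N-terminally to polyhistidine and DsRed, expressed in E. coli BL21-CodonPlus and purified on Ni–NTA. The binding signal is per-feature fluorescence intensity (arbitrary units) from an Axon 4000B scanner.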
Consider “CTAAAATGTATATAATGAAATCTCAATTGGAATCTCATGCCGGAGTCACCTAGTGCAG”, for which the binding signal is 6210 fluorescence intensity (a.u.). On to “ATTGGTCAAATTTTAAATATTGATTTGCTTAGACTTCTTACGGAGTCACCTAGTGCAG”, for which the binding signal is 5320 fluorescence intensity (a.u.).

Take “ATTATTTAATTAGTTCCTGGACTTTGTGTATTATACTACTCGGAGTCACCTAGTGCAG”: the binding signal was 5360 fluorescence intensity (a.u.).

Regarding “AACAAACTGCCAGATAAATTACCCTTCTTCCAGCTCGGATCGGAGTCACCTAGTGCAG”, the binding signal was 11000 fluorescence intensity (a.u.). On to “TCTAATTAAACTCCCCATCAATTTTCAGCACCTCTACCAACGGAGTCACCTAGTGCAG”, for which the binding signal was 19000 fluorescence intensity (a.u.). As for “ATAAGATTAGCACACACACTAATCCAATTCCAACCCAATCCGGAGTCACCTAGTGCAG”, the binding signal was 7050 fluorescence intensity (a.u.).

As to “CATAAATCAACCAAACTATATGTTTGCAGCACATCTGCACCGGAGTCACCTAGTGCAG”, the binding signal is 7200 fluorescence intensity (a.u.). Take “TTTGAATTATATCTAATTCAAATTTGAATTTGAATTCAAACGGAGTCACCTAGTGCAG”: the binding signal was 4000 fluorescence intensity (a.u.).

With “CTTGACTGAGATGCTGTTGATGAGACAGAAGAAGACAGAACGGAGTCACCTAGTGCAG”, the binding signal is 13300 fluorescence intensity (a.u.). Take “ATTCTTGATTTTGATGGCTCAATCAAGCATCAAAACGTGCCGGAGTCACCTAGTGCAG”: the binding signal was 36500 fluorescence intensity (a.u.). “CTTAGCATGCAGGTCATTGATTGATGATGCACGCTCGTTGCGGAGTCACCTAGTGCAG”: the binding signal is 4100 fluorescence intensity (a.u.). Turning to “TAACCACTGAAGACATCATGATTGCTACTAGTTTACAATCCGGAGTCACCTAGTGCAG”, the binding signal was 5790 fluorescence intensity (a.u.).

For the sequence “TTGATTCAATAAATGGAGAATGTAATAATTTTATATGTAGCGGAGTCACCTAGTGCAG”, the binding signal is 4110 fluorescence intensity (a.u.).

In the case of “CTACCATCATTTTGGGCTCTAATGTTTCAAATGACATTCCCGGAGTCACCTAGTGCAG”, the binding signal was 11400 fluorescence intensity (a.u.).

“CTTAATTGGAATCCGACAGTGGGTAATGGAGGAGATGGGCCGGAGTCACCTAGTGCAG”: the binding signal was 51900 fluorescence intensity (a.u.). “CAGGTTGTGATTGATATTTTACATCTAGAACAACGTAATTCGGAGTCACCTAGTGCAG”: the binding signal was 32900 fluorescence intensity (a.u.). As to “GAAGGATTAATGAATTAACCACGTGCGCAAAATCACACGTCGGAGTCACCTAGTGCAG”, the binding signal is 4560 fluorescence intensity (a.u.). For the sequence “GTATGTTGTAATTAAGGAAACACGTAACTTCTATACCCCGCGGAGTCACCTAGTGCAG”, the binding signal was 3850 fluorescence intensity (a.u.).

Consider “TACATATAATTAAACTGTACTAGTAGAGACAACCAGAGAACGGAGTCACCTAGTGCAG”, for which the binding signal is 7360 fluorescence intensity (a.u.). Consider “GGCTTGATTTATTGATTTGTTCTTTAGTACTCCAGTTCAACGGAGTCACCTAGTGCAG”, for which the binding signal is 25700 fluorescence intensity (a.u.). In the case of “AAATTTAGGTTAATTGGATCCATACCATTATAAATGTGATCGGAGTCACCTAGTGCAG”, the binding signal was 14100 fluorescence intensity (a.u.). For “CTTAATTACTACTAGTATTTTACTTAAGCAAGTCATCTCTCGGAGTCACCTAGTGCAG”, the binding signal was 20700 fluorescence intensity (a.u.). Regarding “TTATGTAATTATTAATTCTTTTCCTATCATTTAATTTATTCGGAGTCACCTAGTGCAG”, the binding signal was 12400 fluorescence intensity (a.u.). Next, “ATGTCAATTTTCTCGCGTCCGTCCTATCTCTCGTGTTTTACGGAGTCACCTAGTGCAG”: 4620 fluorescence intensity (a.u.); “TTATAAATTAACTTTTGACAGTTTCGTAGTCAGTCACAGACGGAGTCACCTAGTGCAG”: 31600 fluorescence intensity (a.u.). Regarding “TCGCCATGATTGATCTGATTGCCTACTTAAATTACATTTCCGGAGTCACCTAGTGCAG”, the binding signal was 50800 fluorescence intensity (a.u.). “AGCCGTTAGCATATTAGTTTCAATCACACGCACTGCTACCCGGAGTCACCTAGTGCAG”: the binding signal was 4760 fluorescence intensity (a.u.).

As to “GTTCAATGATTAATCAGAGTTCTGTGAAGTAGTGTTTATACGGAGTCACCTAGTGCAG”, the binding signal was 19800 fluorescence intensity (a.u.). In the case of “TTTTAATTTTAGCTTTCCACCGCCCTGCACATGTAACTGCCGGAGTCACCTAGTGCAG”, the binding signal is 3270 fluorescence intensity (a.u.). Next, “CTTAATTTGCTTACAATTCCTTCAACTACTAATTAAGTATCGGAGTCACCTAGTGCAG”: 34100 fluorescence intensity (a.u.). For “TTTCAATTAATTTTCTGCAGTCGTACATACTTGCGTTTCTCGGAGTCACCTAGTGCAG”, the binding signal was 25700 fluorescence intensity (a.u.). The result for “TGATGCTGAGAAATATCTTGATTGGGAGATGGCAATAGAGCGGAGTCACCTAGTGCAG” reads 6700 fluorescence intensity (a.u.). As to “AATATATTGACTGTTCAGTCAGACTCAGCGGTGGAGGGCACGGAGTCACCTAGTGCAG”, the binding signal was 21400 fluorescence intensity (a.u.). Consider “ACGGCCAGTTTTACATAATTAATTAATTGTTGGTTACCAACGGAGTCACCTAGTGCAG”, for which the binding signal is 27100 fluorescence intensity (a.u.). The result for “AAATTCAATCATAGCTACAAACATTGACATATATTTATCTCGGAGTCACCTAGTGCAG” reads 7520 fluorescence intensity (a.u.).

As to “ATTTGTAATAAAATTTCAAACAATTTAACAAAATGCCCGCCGGAGTCACCTAGTGCAG”, the binding signal was 3910 fluorescence intensity (a.u.). For “AATATACTTAATTACCTCTATTAGTTAATATACTTAACACCGGAGTCACCTAGTGCAG”, the binding signal was 12000 fluorescence intensity (a.u.). As to “ACACATAACTTTTCTATCACATCGTACCAATTTCAACCAACGGAGTCACCTAGTGCAG”, the binding signal was 5510 fluorescence intensity (a.u.). Next, “ACATTTAATTGATTTTCTGAATTCTACAACGGCATCTTTTCGGAGTCACCTAGTGCAG”: 40300 fluorescence intensity (a.u.); “ATCTGTGTAGTCAATTATATTCTCCCTGGGGCCAAACGAACGGAGTCACCTAGTGCAG”: 4100 fluorescence intensity (a.u.); “TCCGTCTTGCCCATTGGCTGATTGGCTTCGCGCTGCAGTCCGGAGTCACCTAGTGCAG”: 9010 fluorescence intensity (a.u.).

As for “TGAATGCTGATTGCCTCAGGCCTTCGAGCCCATCAGTTGGCGGAGTCACCTAGTGCAG”, the binding signal is 20700 fluorescence intensity (a.u.).

Source of the values: PMC7819943, “Rice protein-binding microarrays: a tool to detect cis-acting elements near promoter regions in rice”.
